The data set concerns ATP. The data set can be described thus: switch fluorescence ratio, 500 uM ATP over buffer (Cy3 cluster intensity, sum of 5 cycles each) (fold (ratio)); higher = stronger signal-on switching upon ATP binding; sequences stand for … in TCGTCGGCAGCGTCAGATGTGTATAAGAGACAGTTTTTTTTTTTTTTTTTTTTTTTTT…TC. As to conditions: aptamer strand: ATP DNA aptamer (quencher-CACCTGGGGGAGTATTGCGGAGGAAGG + anchor), 100 nM annealed; ATP concentration: 500 uM; one replicate. The gist of the method: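 Values give the fluorescence ratio for each switch-domain sequence, averaged from per-cluster ratios of summed target-cycle to summed buffer-cycle Cy3 intensity. The Cy3-labelled switching-strand clusters sat on a modified Illumina MiSeq flow-cell, were annealed to 100 nM quencher-labelled ATP aptamer, and were imaged in selection buffer, then after 15 min with 500 uM ATP at 22 °C. Five cycles ran with NaOH stripping and re-annealing between them, and clusters outside 100-1000 RFU were excluded.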

Sequences with one replicate were seen in a single cluster, so their values are uncertain.
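Further: ATP exposure 15 min at 22 °C before imaging.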

With AAGAATCAGT, the switch fluorescence ratio came to 1.02.

Regarding GTATGCTTCA, the switch fluorescence ratio was 0.965.

Take TTAAAGGGAC: the switch fluorescence ratio was determined as 1.01.

For ATATGTATCT, the switch fluorescence ratio turned out to be 1.02.

In the case of TGCAGTCAGG, the switch fluorescence ratio is 1.05.

On to CAAACCAGGG, for which the switch fluorescence ratio was determined as 1.18.

Take CAATTTGGGC: the switch fluorescence ratio was determined as 0.996.

Turning to GTTACCGTCG, the switch fluorescence ratio came to 0.972.

Take GGAGCAGTTC: the switch fluorescence ratio is 5.1.

TTGGGGAGCG: the switch fluorescence ratio was found to be 1.15.

As to CGCTAGTATC, the switch fluorescence ratio amounted to 1.16.

Take CTAAGATCCT: the switch fluorescence ratio is 0.928.

With GTTTTCACCA, the switch fluorescence ratio is 1.01.

With AAACCGAG, the switch fluorescence ratio worked out at 1.78.

Consider CCAGTTGGGC, for which the switch fluorescence ratio was 1.03.

CTGGTGGAAA: the switch fluorescence ratio came out at 0.964.

For TGGTAATGCG, the switch fluorescence ratio amounted to 0.976.

Consider AGTGCAAGTC, for which the switch fluorescence ratio came out at 1.03.

Consider CTAACTAACG, for which the switch fluorescence ratio worked out at 1.26.

Take GTTCGGTGCT: the switch fluorescence ratio was 0.992.

As for TAATGGTCCA, the switch fluorescence ratio amounted to 0.943.

Turning to CATGTCCCGT, the switch fluorescence ratio came to 0.995.

As for AAGCGAACCG, the switch fluorescence ratio came to 1.06.

As for ACACGTTGGT, the switch fluorescence ratio turned out to be 1.01.

Regarding ATCAGTTATA, the switch fluorescence ratio came out at 0.966.

TATAGGGTAT: the switch fluorescence ratio was 0.966.

As to CTTGATGGAG, the switch fluorescence ratio was 1.01.

On to GGTTACTGG, for which the switch fluorescence ratio is 1.06.

AGTCAAGACA: the switch fluorescence ratio is 1.03.

For the sequence ACGACTCAGC, the switch fluorescence ratio amounted to 1.41.

Take ACGCGCACGA: the switch fluorescence ratio amounted to 1.04.

Consider GCTCCATG, for which the switch fluorescence ratio turned out to be 1.07.

With GTATGTAGGT, the switch fluorescence ratio was 0.958.

Turning to GTCCCTACTG, the switch fluorescence ratio is 1.01.

As for CTATGCTGA, the switch fluorescence ratio came to 1.

In the case of TAGATAGTTA, the switch fluorescence ratio is 1.08.

For the sequence TCTCCGTGTG, the switch fluorescence ratio was determined as 1.58.

For GAATTTGCTG, the switch fluorescence ratio stood at 1.06.

Turning to CTCCAAGTAG, the switch fluorescence ratio amounted to 1.77.

For the sequence ACGGCCATGG, the switch fluorescence ratio is 0.926.

As for TACTGGTGAA, the switch fluorescence ratio turned out to be 1.01.

With TTAATAGCAA, the switch fluorescence ratio was found to be 1.

In the case of AAACCGGAAA, the switch fluorescence ratio was 1.08.

On to TACGTCGGGC, for which the switch fluorescence ratio is 0.955.

For AGGACTTTTA, the switch fluorescence ratio was found to be 1.

For the sequence AAGCCGGCTC, the switch fluorescence ratio came out at 0.977.

Regarding ATGATGTCTA, the switch fluorescence ratio came out at 0.996.

For CAAAGATGAG, the switch fluorescence ratio was found to be 0.984.

On to GGGCGAGGCC, for which the switch fluorescence ratio worked out at 1.03.

AAGGGCGAAA: the switch fluorescence ratio amounted to 0.959.

Take TACGATTTAC: the switch fluorescence ratio is 1.15.

As to GTAGAAGCTT, the switch fluorescence ratio amounted to 0.939.

In the case of TATGCGGCGG, the switch fluorescence ratio is 1.02.

In the case of CGTCGAGAAA, the switch fluorescence ratio stood at 1.05.

On to TGAAAGTTCC, for which the switch fluorescence ratio was 1.06.

As to TTTACGCTAA, the switch fluorescence ratio came to 1.26.

As for GGGTTCCGGT, the switch fluorescence ratio was 0.99.

With CGAAATAGTC, the switch fluorescence ratio was found to be 1.55.

Regarding TGAGTGACGC, the switch fluorescence ratio was determined as 1.01.

As for TGACGTATTT, the switch fluorescence ratio worked out at 1.05.

Regarding GCATACCTCA, the switch fluorescence ratio came to 1.13.

With CATGATCGGA, the switch fluorescence ratio amounted to 1.07.

For TAAGTGCTTA, the switch fluorescence ratio is 0.974.

As to TTTCCGTCCC, the switch fluorescence ratio was determined as 1.13.

Consider AAGTCCCGCC, for which the switch fluorescence ratio amounted to 1.01.

In the case of TATGGTTCTC, the switch fluorescence ratio is 1.

Turning to AGGATTCAT, the switch fluorescence ratio is 0.979.

As for TGATTATCAT, the switch fluorescence ratio was determined as 0.971.

For TCGAAAGATA, the switch fluorescence ratio was 0.999.

As to TCAGACATCT, the switch fluorescence ratio worked out at 0.986.

For TAAGTCGAGC, the switch fluorescence ratio was 0.962.

On to ACGAGTGCG, for which the switch fluorescence ratio amounted to 1.01.

In the case of GGCTATGCTC, the switch fluorescence ratio came to 1.16.

In the case of CGTGTTATGA, the switch fluorescence ratio was found to be 0.995.

With TTCCAAGTGT, the switch fluorescence ratio worked out at 1.05.

Turning to TCTGACTATA, the switch fluorescence ratio was 1.08.

In the case of GGAAGGGTCT, the switch fluorescence ratio came out at 1.1.

For CAATCCCCGG, the switch fluorescence ratio was 0.993.

For ATCCCGGGGT, the switch fluorescence ratio is 1.04.

On to TCGAACTACG, for which the switch fluorescence ratio was determined as 1.04.

For TTAAGTCAG, the switch fluorescence ratio came to 1.02.

In the case of TTGGGTTAT, the switch fluorescence ratio stood at 1.06.

For the sequence TTACAATCA, the switch fluorescence ratio came to 1.09.

Regarding ACTGTTGGTT, the switch fluorescence ratio came out at 1.02.

CTGCTTTACT: the switch fluorescence ratio is 1.24.

With TATGGACAGA, the switch fluorescence ratio came to 1.04.

In the case of AGCTCCGGGG, the switch fluorescence ratio came out at 0.999.

On to CCACAAAAG, for which the switch fluorescence ratio was 1.03.

Take GGATACCGT: the switch fluorescence ratio amounted to 0.944.

Consider ATAGGTTGGA, for which the switch fluorescence ratio was 1.

With CAGAGGTTTG, the switch fluorescence ratio turned out to be 0.978.

Regarding AGCTGAAAAC, the switch fluorescence ratio came to 1.01.

Regarding GATGGGCTGG, the switch fluorescence ratio is 0.972.

Take CGCTGAAGTG: the switch fluorescence ratio was found to be 0.987.

For TTCAATATTG, the switch fluorescence ratio was determined as 1.

GTGGGCTAAT: the switch fluorescence ratio was 0.97.

Regarding GCCTAGTCAT, the switch fluorescence ratio is 1.

As for GCAGGGAGGT, the switch fluorescence ratio is 0.999.

Take CATCGAGCGA: the switch fluorescence ratio was found to be 1.15.

As for TGCGCAGACA, the switch fluorescence ratio worked out at 1.02.

With GGCAGGTACT, the switch fluorescence ratio was determined as 1.03.

Regarding CTGTACGAGT, the switch fluorescence ratio turned out to be 1.

For the sequence CCCCTTCCGG, the switch fluorescence ratio is 1.52.

On to CAAGTGGTCA, for which the switch fluorescence ratio came out at 0.968.

GTTGAGTCAG: the switch fluorescence ratio is 1.05.

On to ATCGCGCTTG, for which the switch fluorescence ratio stood at 1.03.

With ATAGTTGGCT, the switch fluorescence ratio amounted to 0.965.

With GTGTGACGAG, the switch fluorescence ratio came out at 0.991.

As for ATTATGAGTC, the switch fluorescence ratio was determined as 1.04.

Consider AAGATTCGGG, for which the switch fluorescence ratio was 0.999.

Consider TAATGTGCGC, for which the switch fluorescence ratio was found to be 0.94.

In the case of TGCGTCTGC, the switch fluorescence ratio came out at 1.06.

CTTCGAATTC: the switch fluorescence ratio was found to be 1.8.

Take TTCGGATTTA: the switch fluorescence ratio came to 1.02.

In the case of GTCTGGGGCA, the switch fluorescence ratio amounted to 0.959.

With CGGGGTTTAT, the switch fluorescence ratio came out at 0.981.

As to ATAGTGTACG, the switch fluorescence ratio is 1.04.

CTCCGTCGTG: the switch fluorescence ratio worked out at 1.34.

Regarding GGAGGCTGAA, the switch fluorescence ratio worked out at 0.959.

On to CGATTAGGCT, for which the switch fluorescence ratio was found to be 0.988.

The values are drawn from the supplement of paper PMC10126150.
